Reference: the supplement of paper PMC12217912
This is one part of the list. The full chains were built here from the parent and the listed change. Inactive controls read about 0.05.

B1: TEV protease; numbered along this chain (parent)
chain: MGESLFKGPRDYNPISSSICHLTNESDGHTTSLYGIGFGPFIITNKHLFRRNNGTLVVQSLHGVFKVKDTTTLQQHLVDGRDMIIIRMPKDFPPFPQKLKFREPQREERICLVTTNFQTKSMSSMVSDTSCTFPSGDGIFWKHWIQTKDGQCGSPLVSTRDGFIVGIHSASNFTNTNNYFTSVPKNFMELLTNQEAQQWVSGWRLNADSVLWGGHKVFMVKPEEPFQPVKEATQL

Variants of: B1
Assay: raw area under fraction-flipped curve 0-4 h after induction (AUC4h, not background-subtracted), DNA-recorder readout of cleavage of the substrate (dimensionless); higher = more cleavage of the substrate by the protease variant
Settings: temperature: 34 °C; time window: 0-4 h after rhamnose induction
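Also: Bxb1 expression induced with 0.2% (w/v) L-rhamnose at OD600 near 0.5, cultures sampled hourly, flipped fraction per protease–substrate barcode pair counted by paired-end Illumina sequencing.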

| Variant | area with substrate ENDYFQS | area with substrate ENHYFQS | area with substrate ENKYFQS | area with substrate ENMYFQS | area with substrate ENQYFQS | area with substrate ENRYFQS | area with substrate ENSYFQS | area with substrate ENVYFQS | area with substrate ENEYFQS | area with substrate ENGYFQS |
| --- | --- | --- | --- | --- | --- | --- | --- | --- | --- | --- |
| P94C | 0.0755 | 0.0554 | 0.0761 | 0.0826 | 0.0685 | 0.0548 | 0.0583 | 0.0678 | – | – |
| F117I | 0.0668 | 0.0529 | 0.0618 | – | – | 0.0631 | – | – | 0.0557 | 0.0606 |
| F117T | 0.102 | 0.0374 | 0.0436 | – | 0.0528 | 0.0397 | – | – | – | 0.0564 |
| S158T | – | – | 0.0571 | 0.078 | – | – | – | – | 0.0782 | – |
| T23F | 0.0558 | 0.0448 | – | – | 0.0621 | 0.0694 | 0.0554 | – | 0.0531 | 0.0648 |
| G63E | 0.0514 | 0.0633 | – | 0.0732 | 0.0426 | – | – | 0.0592 | 0.0778 | – |
| N206Q | 0.0587 | 0.0442 | – | – | – | 0.0513 | 0.0219 | – | – | – |
| N206M | – | – | 0.0628 | – | – | – | – | – | 0.0712 | – |
| R51T | 0.02 | – | – | – | 0.054 | – | – | 0.0904 | – | – |
| S135T | 0.0614 | 0.044 | – | – | 0.07 | 0.059 | 0.0582 | 0.0698 | 0.0664 | 0.0543 |
| V220F | 0.0633 | 0.0861 | 0.0487 | 0.0553 | 0.0657 | – | 0.0574 | 0.084 | – | 0.0574 |
| L99A | 0.0743 | – | – | 0.0791 | – | 0.0396 | 0.0637 | 0.076 | 0.0624 | – |
| L33T | 0.0589 | 0.0584 | – | – | 0.0688 | 0.0573 | – | – | 0.0692 | 0.0569 |
| W203Q | 0.0613 | – | – | 0.0469 | 0.0548 | 0.0292 | 0.046 | – | – | – |
| I15R | 0.0646 | 0.064 | – | – | – | – | 0.0518 | 0.031 | 0.0565 | – |
| H215T | 0.0575 | 0.0595 | – | – | – | – | – | 0.0657 | 0.0557 | 0.0594 |
| M188K | 0.0648 | 0.0473 | 0.0691 | – | 0.0832 | – | 0.0523 | – | 0.0619 | – |
| T233A | 0.0445 | 0.0615 | – | 0.0811 | 0.0643 | – | – | – | – | 0.0656 |
| S182D | 0.0573 | – | – | – | 0.0532 | 0.0579 | 0.0261 | 0.0693 | – | 0.0681 |
| A170L | 0.0429 | – | – | – | – | 0.0701 | 0.0596 | – | – | 0.0722 |

| Variant | area with substrate ENDYFQS | area with substrate ENHYFQS | area with substrate ENKYFQS | area with substrate ENMYFQS | area with substrate ENQYFQS | area with substrate ENRYFQS | area with substrate ENSYFQS | area with substrate ENVYFQS | area with substrate ENEYFQS | area with substrate ENGYFQS |
| --- | --- | --- | --- | --- | --- | --- | --- | --- | --- | --- |
| P89I | – | – | – | – | – | 0.0398 | – | 0.0419 | 0.0266 | – |
| Q75Y | 0.0583 | – | – | – | 0.0557 | 0.0579 | 0.0494 | – | 0.0741 | 0.0612 |
| R102F | 0.051 | – | 0.0464 | – | – | – | 0.0405 | – | 0.0462 | 0.0468 |
| N116I | 0.0674 | – | – | – | 0.07 | 0.0726 | 0.061 | 0.0831 | – | – |
| F95Q | 0.0657 | 0.0622 | 0.0677 | – | 0.046 | – | – | – | – | – |
| F95P | 0.058 | – | 0.0425 | 0.0417 | 0.0339 | – | 0.0382 | 0.0672 | 0.0577 | 0.046 |
| K90E | 0.0375 | – | 0.0578 | – | 0.0684 | – | 0.0587 | – | 0.0579 | – |
| R50T | 0.0644 | 0.0669 | – | 0.0904 | 0.0553 | 0.0568 | 0.0541 | – | – | – |
| S169L | 0.0611 | 0.0644 | 0.0637 | – | – | – | 0.0381 | – | 0.051 | – |
| Q74T | 0.0639 | – | – | – | 0.0654 | 0.06 | 0.0458 | – | 0.0637 | – |
| I110A | 0.0633 | – | 0.0384 | – | 0.0627 | 0.0647 | – | – | – | – |
| G2W | 0.0487 | 0.047 | – | – | 0.0586 | – | 0.0543 | – | 0.0594 | – |
| V67E | 0.0512 | – | 0.0905 | – | – | – | 0.0518 | – | 0.0488 | – |
| K185D | – | 0.0555 | – | 0.0752 | 0.0846 | 0.0277 | – | – | 0.0747 | 0.068 |
| W141K | 0.0551 | 0.0603 | – | 0.0619 | 0.0436 | 0.0663 | 0.0651 | 0.0516 | 0.0646 | 0.0559 |
| V157C | – | 0.0454 | – | 0.0599 | 0.0634 | 0.0563 | – | – | 0.0675 | 0.0555 |
| S171N | 0.0601 | 0.0703 | 0.0524 | – | 0.0594 | 0.0305 | 0.0715 | – | 0.0696 | 0.0571 |
| T159H | 0.0677 | – | – | – | 0.0546 | 0.069 | 0.0883 | – | 0.0618 | – |
| T159W | 0.0619 | – | – | 0.0572 | – | 0.0497 | 0.0436 | – | – | – |
| T181W | 0.064 | 0.0596 | – | 0.0706 | 0.083 | – | 0.0646 | 0.0587 | – | – |

Same assay, conditions: temperature: 34 °C; time window: 0-4 h after rhamnose induction

| Variant | area with substrate ENWYFQS | area with substrate ENYYFQS | area with substrate ENIYFQS | area with substrate ENFYFQS | area with substrate ENNYFQS | area with substrate ENPYFQS | area with substrate ENTYFQS |
| --- | --- | --- | --- | --- | --- | --- | --- |
| F117I | 0.0614 | 0.0712 | – | – | – | – | – |
| S158T | – | 0.0653 | 0.0957 | – | – | – | – |
| T23F | 0.0069 | – | 0.0926 | 0.0572 | 0.0526 | 0.0482 | 0.0521 |
| G63E | 0.0224 | – | 0.104 | 0.0617 | 0.0678 | – | 0.072 |
| N206Q | – | 0.0635 | 0.104 | 0.0579 | 0.048 | 0.0602 | 0.0575 |
| N206M | – | – | – | – | 0.0662 | – | – |
| R51T | – | 0.0424 | – | 0.0647 | – | – | – |
| S135T | 0.0682 | 0.0674 | – | 0.0616 | – | 0.0672 | 0.0671 |
| V220F | 0.01 | 0.0581 | 0.0877 | 0.042 | – | – | 0.0781 |
| L99A | – | 0.0606 | 0.0894 | – | – | 0.0497 | – |
| L33T | 0.0557 | – | 0.143 | 0.0351 | – | 0.0691 | – |
| W203Q | – | 0.0594 | – | – | 0.0835 | 0.0443 | 0.0514 |
| I15R | – | – | 0.0766 | – | 0.0517 | – | – |
| H215T | – | – | – | – | 0.0689 | – | 0.0678 |
| M188K | – | – | – | 0.0747 | 0.0552 | 0.0459 | 0.0542 |
| T233A | – | – | – | 0.0731 | – | – | – |
| S182D | – | – | – | – | – | 0.0674 | – |
| A170L | – | – | – | 0.0553 | 0.049 | – | – |

| Variant | area with substrate ENWYFQS | area with substrate ENYYFQS | area with substrate ENIYFQS | area with substrate ENFYFQS | area with substrate ENNYFQS | area with substrate ENPYFQS | area with substrate ENTYFQS |
| --- | --- | --- | --- | --- | --- | --- | --- |
| P89I | – | – | 0.0696 | 0.0558 | – | – | 0.0633 |
| Q75Y | 0.0573 | – | – | 0.0625 | 0.066 | – | 0.0644 |
| R102F | – | – | – | – | 0.0195 | – | 0.0031 |
| N116I | – | – | 0.0781 | – | – | – | – |
| F95Q | 0.0455 | – | – | 0.0597 | – | – | 0.0502 |
| F95P | 0.0079 | 0.0554 | – | – | – | 0.0508 | – |
| K90E | 0.0689 | 0.0601 | – | 0.0715 | 0.0621 | – | 0.0676 |
| R50T | 0.0561 | 0.0595 | – | 0.0752 | 0.0658 | 0.0642 | 0.0615 |
| S169L | – | 0.0703 | – | – | – | – | 0.0042 |
| Q74T | 0.0617 | 0.0589 | 0.0876 | 0.0469 | – | – | – |
| I110A | – | – | – | – | 0.0318 | 0.0525 | – |
| V67E | – | – | – | – | – | 0.064 | – |
| K185D | – | – | – | – | – | – | 0.0598 |
| W141K | – | 0.0568 | 0.0612 | 0.0439 | 0.0407 | – | – |
| V157C | – | – | – | 0.0545 | – | – | – |
| S171N | 0.0498 | 0.0567 | – | 0.0653 | 0.0593 | – | – |
| T159H | 0.0451 | – | 0.122 | 0.0741 | – | – | – |
| T181W | – | – | – | 0.0656 | – | 0.0692 | – |
